Experimental data: PubChem BioAssay AID2101 (National Center for Advancing Translational Sciences (NCATS), 2009)
Among all 330,000 compounds or so, about 300 (0.091%) were called active. The shares of active, inactive and inconclusive entries below differ from those in the screen. Calls follow the shape of the dose curve; as a rule, active = well fitted inhibition curve with a large enough effect; inconclusive = small, poorly fitted or top-dose-only effect, or effect the other way, or another doubt; inactive = no such curve, though single readings can be large or run the other way. Potencies of inconclusive entries are left out as doubtful fits.

Molecular target: Lysosomal acid glucosylceramidase (Homo sapiens) (UniProt P04062)
Test: qHTS Assay for Inhibitors and Activators of N370S glucocerebrosidase as a Potential Chaperone Treatment of Gaucher Disease;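 as to activity change, negative = inhibition: 0% = full enzyme activity and -100% = no enzyme basal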
Settings: N370S GC spleen homogenate, 4MU-glucoside fluorescence; activity change, negative = inhibition: at 59.4 µM (top of the series) unless noted
Potency is read from the fitted curve at half-maximal effect.

| Compound | Potency | activity change, negative = inhibition |
| --- | --- | --- |
| CCc1c(C)c(C#N)c2nc3ccccc3n2c1NCc1ccco1 | inconclusive [activator, partial curve] |  |
| C=CCn1c(-c2cc(-c3ccccc3)sc2N)n[nH]c1=S |  | inactive: 2.25% |
| NC(=O)c1c(NC(=O)c2ccccc2F)sc2c1CCCC2 | inconclusive [activator, single point] |  |
| CCN(CC)CCCNc1cc2n(c(=O)n1)CCc1cc(OC)c(OC)cc1-2 |  | inactive: 4.56% |
| COCCN(C(=O)COC(=O)c1ccccc1NCc1ccco1)c1c(N)n(Cc2ccccc2)c(=O)[nH]c1=O | inconclusive [activator, partial curve] |  |
| COc1ccc(N=C2NC(=O)/C(=C\C=C\c3ccco3)S2)cc1 |  | inactive: 1.97% |
| CCN1c2ccccc2-c2nc3ccccc3n2C1c1ccco1 (stereo not drawn) | inconclusive [activator, single point] |  |
| CCc1ccc(-c2cc(C(F)(F)F)n3nc(C(=O)Nc4cnn(Cc5ccccc5C)c4)cc3n2)s1 |  | inconclusive: 30.8% [activator] |
| COc1ccccc1N1CCN(C(c2ccccn2)c2nnnn2C2CCCCC2)CC1 (stereo not drawn) | inconclusive [inhibitor, partial curve] |  |
| CCO[Si](CCCN)(OCC)OCC |  | inactive: -2.57% |
| Cc1ccsc1/C=N/Nc1ccc(C(=O)O)cc1 | inconclusive [inhibitor, full curve, poor fit] |  |
| O=[N+]([O-])c1ccc(N/N=C/c2ccc(O)c(O)c2O)c(S(=O)(=O)N2CCOCC2)c1 | inconclusive [inhibitor, single point] |  |
| CCc1ccc(/C(C)=N/Nc2cc(Cl)nc(C)n2)cc1 | inconclusive [activator, single point] |  |
| COc1cccc(CN2CCNC(=O)C2CC(=O)NC2CCOCC2)c1OC (stereo not drawn) | inconclusive [activator, partial curve, poor fit] |  |
| COc1cccc(/C=C2/SC(=S)N(CC(=O)Nc3nnc(C)s3)C2=O)c1 | inconclusive [inhibitor, partial curve] |  |
| COc1cccc(C2C(C#N)=C(C)NC3=C2C(=O)CC(C)(C)C3)c1 (stereo not drawn) | inconclusive [activator, partial curve] |  |
| O=C1NN(c2ccc(Br)cc2)C(=O)/C1=C\c1ccc(O)cc1O | inconclusive [activator, partial curve] |  |
| CCOC(=O)n1cc(-c2cnc(CNC(=O)C(C)(c3ccccc3)c3ccccc3)o2)c2ccccc21 | inconclusive [activator, partial curve] |  |
